Laboratory results: publication PMC11164869
No constants are given. Whether binding was seen depends on the method and setting. Binding seen in cells or lysates may run through a third protein. Tags and fused reporters may be left off the sequences shown.

Sequences of proteins named here, by UniProt entry; tags and fusion partners are left off.
UniProt Q9Y6K9: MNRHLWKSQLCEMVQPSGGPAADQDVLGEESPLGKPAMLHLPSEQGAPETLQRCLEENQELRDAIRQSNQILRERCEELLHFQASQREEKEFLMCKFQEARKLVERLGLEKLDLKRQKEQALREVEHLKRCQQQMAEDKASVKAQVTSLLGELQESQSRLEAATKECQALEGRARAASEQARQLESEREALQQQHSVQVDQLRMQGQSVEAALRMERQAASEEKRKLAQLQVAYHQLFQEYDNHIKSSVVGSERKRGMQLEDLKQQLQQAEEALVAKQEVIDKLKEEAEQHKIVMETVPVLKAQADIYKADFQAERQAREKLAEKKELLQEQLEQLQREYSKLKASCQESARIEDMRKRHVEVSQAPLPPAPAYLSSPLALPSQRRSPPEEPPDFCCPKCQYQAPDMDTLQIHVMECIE

Target: T1, Flag-OTUD5 (WT) (human) (UniProt Q96G74)
T1 sequence: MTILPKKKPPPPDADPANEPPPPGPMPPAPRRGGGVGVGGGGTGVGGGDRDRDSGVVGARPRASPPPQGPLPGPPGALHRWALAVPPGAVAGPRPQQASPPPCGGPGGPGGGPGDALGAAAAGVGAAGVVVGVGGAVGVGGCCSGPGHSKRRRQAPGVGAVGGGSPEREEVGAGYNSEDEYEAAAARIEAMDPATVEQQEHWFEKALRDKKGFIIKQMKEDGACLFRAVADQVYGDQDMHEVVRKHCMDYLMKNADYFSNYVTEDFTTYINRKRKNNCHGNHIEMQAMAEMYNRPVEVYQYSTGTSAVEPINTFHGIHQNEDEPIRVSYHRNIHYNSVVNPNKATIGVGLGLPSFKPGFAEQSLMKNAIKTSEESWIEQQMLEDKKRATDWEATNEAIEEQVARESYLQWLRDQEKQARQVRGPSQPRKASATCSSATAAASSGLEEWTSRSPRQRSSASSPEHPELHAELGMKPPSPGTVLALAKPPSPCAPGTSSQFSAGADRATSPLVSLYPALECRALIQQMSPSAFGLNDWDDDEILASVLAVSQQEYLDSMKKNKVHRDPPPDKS
Assay: co-IP; HEK293T cells co-transfected with tagged plasmids; IP buffer 1% NP-40, 150 mM NaCl, 10 mM Tris-HCl pH 7.4, 1 mM EDTA; antibody with Protein A/G PLUS Agarose overnight; immunoblot

binding: no binding
Substance: Myc-IKKγ (from UniProt Q9Y6K9 1-419)
